According to the RNAGym collection of RNA variant scans (doi:10.1093/nar/gkz1192):
Read counts are not given, so values of variants with three or more changes are uncertain.

B1: CPEB3 Ribozyme (parent)
chain: UAACAGGGGGCCACAGCAGAAGCGUUCACGUCGCAGCCCCUGUCAGAUUCUGGUGAAUCUGCGAAUUCUGCUGUAUAUCUC

Variants of: B1
Test: self-cleavage, relative activity (ratio to wild type); higher = more cleavage; in vitro, sequencing
Procedure, shortened: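 Relative activity was defined as the cleaved/total read fraction for a variant divided by the same fraction for the unmutated ribozyme. CPEB3 self-cleaving ribozyme libraries were made by rounds of error-prone PCR, barcoded, and transcribed in vitro with T7 RNA polymerase for 5 hours at 37°C, and cleavage ran through transcription plus a 15 min DNase I step before EDTA. Illumina sequencing of template-switched reverse transcripts gave the reads, and DNA sequencing mapped the barcodes. Averages come from three batches, using variants with at least 5 reads.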

Variant | self-cleavage
G8U G46A U51A | 0.12
G8A A64U G73A | 0.06
G7A A65G U69C U76A | 0.1
G8C U26A G52C | 0.07
G7A G30U U41A U66C U69C U80A | 0.05
G8C C14U U48A U58C U69A | 0.05
G8C U31C U48C U72C | 0.15
G7A U60C U66C | 0.06
G7U U31C G33A U60A G70A | 0.06
G8A A56G A65G U76C | 0.06
G8A U54C A57C G63A U78C | 0.09
G8A U25A U26A C44U U80A | 0.24
G7C A20G U25C | 0.51
G8U U72C A77G U78C | 0.19
G8A A15U U25G C39A | 0.05
G7A U25C U66C U69C | 0.07
G8U A21G A45U U80C | 0.11
G7U A28G A57G | 0.15
G9A A13G U31C A35U A47G | 0.05
G8A G33A A65U U72C U78C | 0.05
G8U C32U A45G U80C | 0.07
G8U C12G A15G A18U A20U A45U | 0.05
G7A A35G U51C U80A | 0.24
G8A U31C U41C | 0.24

Variant | self-cleavage
G8A A15G A21G U25A A35C | 0.04
G7U U26G U66C U80A | 0.11
G7C A15U C32A U80G | 0.06
G9A A13C A21U U41A U54G | 0.08
G8A A35G U72C | 0.51
G8U C17U U58C U78C | 0.05
G7C U43A U48C A57G U58A U74C A75G | 0.03
G7C G10A G33C A75U | 0.17
G8A G52A A64G | 0.11
G8A C23G U25C G52U G73A | 0.06
G7U U31G U43C A47G U74C C81G | 0.04
G8A A28G G42A U48C A57G A65U | 0.03
G8A A65C U67C | 0.14
G7U A21G U31C A35G C38A G46A U78C | 0.02
G7U A20U U26A C37A U49C | 0.49
G7C A45G U51C U72A | 0.07
G8A G10A A20U A45U C71U | 0.04
G7C C12G G24A | 0.3
G8U A18U U80C | 0.06
G7U A15G U51C U69C | 0.06
G7U C32A A57G U78C | 0.19
G7A U25C A35U A75G | 0.02
G8C U26A G55A | 0.35
G7A C39A U49C | 0.35

Variant | self-cleavage
G8A A13U U48C G53A | 0.07
G8A U26A A56G U67C | 0.06
G8C C14U U72A | 0.23
G8A C11A A20G U49A G52A | 0.05
G8A G19U U26A G36A U54C U69G | 0.02
G7U G9U C37G U49G G63U | 0.04
G7U C40U G46A U51C U69A C71U | 0.12
G7A U25C U60C | 0.29
G8U A28G U41C A64U U72C | 0.07
G8U A18U A47G U80A | 0.04
G8A A13G G19A U25A U41C A65G | 0.05
G7U A35U U72C | 0.18
G8U U25G A28G A47G U69C | 0.05
G7A U43C A64U U72C | 0.24
G7A U31C C59A | 0.16
G8U A13G A20G C29U C40G U54A U60A | 0.04
G8A U41C U54G U80A | 0.07
G7C G19C C32U G42A U80C | 0.12
G8U A20U C38U U41C U54C A65G U67C | 0.03
G7U G10A U41A U43C U51C A56U A64U | 0.07
G8C A45C G52U U54C | 0.43
G8U A15G U48C U54C U69C | 0.26
G7U C17U A18G | 0.27
G7U U41A G52U U54A U72C U76A | 0.32

Variant | self-cleavage
G8A A15U U25C U41C C62A A77G | 0.16
G7U G19C A20G U72C | 0.31
G7C U26C U31C A35U | 0.07
G7A U25C U41A U58C | 0.17
G8A A21G C23A U54C | 0.44
G8A A13G C40U G55A A56C A57G U76C | 0.05
G7A G33A A35U | 0.15
G8A A15G A28G U72A | 0.2
G8A A13U C17U U49C U72C | 0.23
G8A C11U A21G A64G U67C A77U C81A | 0.03
G7A U54G U58A A65G | 0.1
G8A C40G A56G | 0.07
G7A U26C C40G A57G G61U | 0.1
G7U A21G A56G U60C C62G | 0.08
G7A G10C U54A A56U U66C | 0.16
G7U A28G U54G A57U G61A G73C | 0.06
G8A A57G U78C | 0.36
G8C U26A G36A U41A G46A U67C U72C | 0.04
G8A A18U A47G | 0.08
G7U G36U A56G U78C | 0.05
G7U A13U A45G U58A U66G | 0.06
G8A C14U A20G G70U | 0.17
G7C A15U G33A G52A A56G | 0.04
G8C A15G C59U U60C U78C | 0.06

Variant | self-cleavage
G7C G10U A21G A45U U54C A64U | 0.05
G8A U25A U41A A56G A75U U76C | 0.18
G8A A18G A20U U26C U66C | 0.19
G8U U25C A28G G33U U41C | 0.09
G8U U54C U67C | 0.08
G8A G10A G19A U25G C62U G70A U76A | 0.03
G8U A20G A35G U54A U80C | 0.08
G7U U26C U48C U49C | 0.06
G8A U25C C32U C40A U78C U80A | 0.14
G8A U49C U66A A77G U80A | 0.05
G8U A15G U41A U48C U54C A56G | 0.06
G8U A21C U43C U78A | 0.05
G7U A15G A28G G70A | 0.25
G8A U25C A35G U67A G73A | 0.07
G8U A18G U43C C68U U72C | 0.09
G8A G30C U58C | 0.07
G8U U51C A56U | 0.07
G7U A64G U67A | 0.17
G8C A13U U43G U49A U51G | 0.05
G8A G24A U66C | 0.25
G8A C11U U31C | 0.26
G8C A18U A20G A28U | 0.09
G8A A35G A64U U74C U80C | 0.24
G8A C11U G24A A35U U41C A45U U60A | 0.13

Variant | self-cleavage
G7U A15U C17U A18G U25C U60A | 0.43
G7A C23A U26G U51A G70A | 0.12
G9A A13C C50A | 0.11
G8A U31C U43A | 0.13
G7A U41C G42A U74A U78C | 0.22
G7U A21G U41C A56G A64G | 0.07
G8U A13G U41A | 0.07
G7A U26C A28U A45G U54C | 0.07
G7U C40G U78C U80A | 0.12
G8U A18C U48C | 0.09
G7A G30C U54C A56G A77G | 0.06
G7U G10U G19C A21G C38U | 0.04
G8A A18C C59U | 0.19
G8U G10A A35G A45G | 0.24
G8A A20U U51C | 0.1
G8A A21G A56U A64U U66C U69A | 0.07
G7A C11U A45G | 0.24
G8A U41C A45U U67C U72C | 0.18
G7U A28G A56G | 0.13
G8U A13U U51A U72G U76C U78C | 0.04
G8A U43C A56G | 0.06
G8A A45C U51A C62U | 0.06
G8A A45G U48C U60C A65G U72C | 0.07
G8U A18U U72A | 0.18

Variant | self-cleavage
G8A C38U U51C U54C A56G U74C U76A | 0.03
G7C U67A U72C | 0.08
G7C C37A U54A | 0.24
G8A U25C U72C U80A | 0.08
G8A C29A U51C U67C | 0.06
G8U A20G U41G U54G U67C | 0.14
G8U A45U U51A A64G | 0.06
G8A A20G A28G | 0.37
G8A A21G U25C U43A U60A U78C | 0.05
G8U A20G C34U A35G U41C A77G | 0.04
G8U U69C U80A | 0.13
G7U U31G U80C | 0.1
G8U C11U A45G U48C | 0.21
G8C C34G U48C U51C | 0.23
G7A U43C U69C | 0.13
G8A A20G U26C A64G U74C | 0.05
G7U A28U U51A G53A | 0.17
G7A A35U U41A A56G U72A | 0.08
G7A C17G U26C C32A U41C U72G | 0.04
G7A G19U A35G U51C U67A | 0.05
G7A C23G U26A A35G U43C | 0.05
G7A C11U A18G | 0.06
G7A G30C U51A U54C A56G U60C A77G | 0.06
